# Test results reported in article PMC6639331, “Reconstitution of recombinant human CCR4-NOT reveals molecular insights into regulated deadenylation” (Nature Communications, 2019).
# Molecular target: T1, NOT1:NOT2:NOT3:CAF40 subcomplex (full-length subunits) (human, UniProt A5YKK6; Q9NZN8; O75175; Q92600)
# T1 construct: NOT1, human, full length; NOT2, human, full length; NOT3, human, full length; CAF40, human, full length; No removal of the tags of NOT1 is reported; also called NOT1:NOT2:NOT3:CAF40 complex; NOT1:NOT2:NOT3:CAF40 tetramer; source: Sf21 insect cells (baculovirus), purified (nickel IMAC); copies: + + +
# Assay: SEC-MALS; reconstituted CCR4-NOT FULL, 40 ul at 0.9 mg/ml, Superose 6 5/150 in 10 mM HEPES/NaOH pH 7.5, 200 mM NaCl; SDS-PAGE with Coomassie staining of the complex
# Conditions: both partners purified
# T1 sequence (A5YKK6 whole entry, chain 1 of 4): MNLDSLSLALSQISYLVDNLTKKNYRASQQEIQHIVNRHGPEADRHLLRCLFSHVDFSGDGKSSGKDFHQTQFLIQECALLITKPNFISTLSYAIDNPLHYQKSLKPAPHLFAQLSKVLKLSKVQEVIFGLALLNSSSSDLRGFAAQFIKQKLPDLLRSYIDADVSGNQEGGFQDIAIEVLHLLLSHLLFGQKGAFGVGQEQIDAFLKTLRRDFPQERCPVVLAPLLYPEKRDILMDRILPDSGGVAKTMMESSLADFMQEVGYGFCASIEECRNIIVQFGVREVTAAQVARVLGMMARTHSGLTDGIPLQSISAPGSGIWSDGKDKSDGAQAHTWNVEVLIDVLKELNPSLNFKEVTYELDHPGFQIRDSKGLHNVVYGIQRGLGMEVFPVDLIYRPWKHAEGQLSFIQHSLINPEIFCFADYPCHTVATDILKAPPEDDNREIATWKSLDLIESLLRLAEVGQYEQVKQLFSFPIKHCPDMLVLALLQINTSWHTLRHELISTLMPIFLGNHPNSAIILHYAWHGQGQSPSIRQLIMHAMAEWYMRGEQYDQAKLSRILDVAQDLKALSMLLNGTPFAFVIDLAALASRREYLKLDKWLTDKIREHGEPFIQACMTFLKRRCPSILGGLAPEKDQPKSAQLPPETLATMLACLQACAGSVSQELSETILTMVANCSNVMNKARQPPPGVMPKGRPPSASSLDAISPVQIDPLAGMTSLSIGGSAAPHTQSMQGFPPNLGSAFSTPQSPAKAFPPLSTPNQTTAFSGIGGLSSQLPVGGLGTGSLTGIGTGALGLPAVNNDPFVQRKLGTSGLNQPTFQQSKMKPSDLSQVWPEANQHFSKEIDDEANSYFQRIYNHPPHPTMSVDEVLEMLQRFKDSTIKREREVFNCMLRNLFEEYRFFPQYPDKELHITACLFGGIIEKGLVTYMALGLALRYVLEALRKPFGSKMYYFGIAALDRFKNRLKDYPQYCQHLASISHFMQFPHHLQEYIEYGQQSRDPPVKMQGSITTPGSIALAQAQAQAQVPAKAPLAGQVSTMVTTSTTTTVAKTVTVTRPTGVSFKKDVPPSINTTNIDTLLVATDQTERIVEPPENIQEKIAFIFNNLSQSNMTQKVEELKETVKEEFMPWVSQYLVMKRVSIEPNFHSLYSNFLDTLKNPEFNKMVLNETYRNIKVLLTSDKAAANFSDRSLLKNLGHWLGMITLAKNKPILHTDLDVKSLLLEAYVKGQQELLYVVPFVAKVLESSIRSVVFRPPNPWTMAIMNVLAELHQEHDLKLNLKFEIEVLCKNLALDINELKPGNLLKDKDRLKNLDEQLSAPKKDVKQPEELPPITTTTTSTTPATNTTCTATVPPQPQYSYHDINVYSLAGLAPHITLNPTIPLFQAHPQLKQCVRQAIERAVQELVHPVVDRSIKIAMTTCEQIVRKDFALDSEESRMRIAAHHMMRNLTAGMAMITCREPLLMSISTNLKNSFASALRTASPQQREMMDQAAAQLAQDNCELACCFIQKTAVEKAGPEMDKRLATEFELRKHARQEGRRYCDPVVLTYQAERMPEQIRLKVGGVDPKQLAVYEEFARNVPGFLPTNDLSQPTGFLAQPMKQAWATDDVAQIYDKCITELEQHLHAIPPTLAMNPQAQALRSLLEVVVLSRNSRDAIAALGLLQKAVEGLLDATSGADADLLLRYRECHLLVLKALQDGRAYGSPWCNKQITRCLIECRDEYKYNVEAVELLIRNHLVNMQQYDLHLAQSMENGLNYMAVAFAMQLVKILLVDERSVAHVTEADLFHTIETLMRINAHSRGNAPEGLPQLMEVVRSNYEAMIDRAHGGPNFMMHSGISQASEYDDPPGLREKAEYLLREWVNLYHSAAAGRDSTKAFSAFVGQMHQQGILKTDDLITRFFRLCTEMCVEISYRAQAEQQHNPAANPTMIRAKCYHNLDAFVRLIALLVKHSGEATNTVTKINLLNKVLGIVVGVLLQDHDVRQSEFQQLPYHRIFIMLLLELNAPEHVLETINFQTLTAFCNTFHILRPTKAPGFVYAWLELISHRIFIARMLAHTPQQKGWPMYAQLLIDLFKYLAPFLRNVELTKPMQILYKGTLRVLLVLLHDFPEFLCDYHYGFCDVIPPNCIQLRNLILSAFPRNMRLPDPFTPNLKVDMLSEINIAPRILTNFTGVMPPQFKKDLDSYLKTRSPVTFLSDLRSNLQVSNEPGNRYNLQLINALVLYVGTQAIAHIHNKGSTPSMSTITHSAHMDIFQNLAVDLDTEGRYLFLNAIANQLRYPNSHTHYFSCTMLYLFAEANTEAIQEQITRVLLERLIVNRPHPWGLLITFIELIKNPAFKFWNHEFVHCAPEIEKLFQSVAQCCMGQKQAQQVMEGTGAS
# T1 sequence (Q9NZN8 whole entry, chain 2 of 4, further chain): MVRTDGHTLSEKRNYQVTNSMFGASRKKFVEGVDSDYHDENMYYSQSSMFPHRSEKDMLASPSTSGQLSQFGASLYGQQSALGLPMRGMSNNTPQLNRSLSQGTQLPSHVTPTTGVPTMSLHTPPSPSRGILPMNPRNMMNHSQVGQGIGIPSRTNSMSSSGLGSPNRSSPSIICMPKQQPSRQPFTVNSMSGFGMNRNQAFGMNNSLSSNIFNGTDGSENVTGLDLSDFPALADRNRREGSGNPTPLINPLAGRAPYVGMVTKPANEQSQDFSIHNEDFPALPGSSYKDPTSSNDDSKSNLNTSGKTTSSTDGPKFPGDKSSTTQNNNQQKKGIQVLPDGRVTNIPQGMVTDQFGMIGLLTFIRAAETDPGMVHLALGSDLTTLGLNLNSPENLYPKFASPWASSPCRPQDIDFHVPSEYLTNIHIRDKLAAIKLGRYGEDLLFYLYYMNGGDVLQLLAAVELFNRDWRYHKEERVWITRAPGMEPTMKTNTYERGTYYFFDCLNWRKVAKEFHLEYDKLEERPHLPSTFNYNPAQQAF
# T1 sequence (O75175 whole entry, chain 3 of 4, further chain): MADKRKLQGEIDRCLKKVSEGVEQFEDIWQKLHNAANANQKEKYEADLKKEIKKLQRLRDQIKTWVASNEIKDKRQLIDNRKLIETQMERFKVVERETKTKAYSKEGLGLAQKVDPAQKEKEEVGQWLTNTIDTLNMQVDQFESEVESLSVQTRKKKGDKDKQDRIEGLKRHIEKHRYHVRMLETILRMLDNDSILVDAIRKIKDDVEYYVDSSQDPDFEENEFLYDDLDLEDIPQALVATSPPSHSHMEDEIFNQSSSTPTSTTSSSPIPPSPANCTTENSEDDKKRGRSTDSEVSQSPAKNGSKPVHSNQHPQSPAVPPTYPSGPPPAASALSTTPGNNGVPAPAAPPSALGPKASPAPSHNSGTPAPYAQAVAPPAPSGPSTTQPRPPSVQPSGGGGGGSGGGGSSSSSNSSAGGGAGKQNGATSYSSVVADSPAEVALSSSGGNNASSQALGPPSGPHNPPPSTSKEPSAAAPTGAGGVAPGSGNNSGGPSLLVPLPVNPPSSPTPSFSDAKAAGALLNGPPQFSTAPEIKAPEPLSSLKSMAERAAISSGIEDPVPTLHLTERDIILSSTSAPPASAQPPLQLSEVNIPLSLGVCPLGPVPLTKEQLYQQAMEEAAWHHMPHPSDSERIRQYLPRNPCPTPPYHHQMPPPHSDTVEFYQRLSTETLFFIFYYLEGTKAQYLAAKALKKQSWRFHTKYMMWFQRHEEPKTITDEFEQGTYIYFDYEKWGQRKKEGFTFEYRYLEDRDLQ
# T1 sequence (Q92600 whole entry, chain 4 of 4, further chain): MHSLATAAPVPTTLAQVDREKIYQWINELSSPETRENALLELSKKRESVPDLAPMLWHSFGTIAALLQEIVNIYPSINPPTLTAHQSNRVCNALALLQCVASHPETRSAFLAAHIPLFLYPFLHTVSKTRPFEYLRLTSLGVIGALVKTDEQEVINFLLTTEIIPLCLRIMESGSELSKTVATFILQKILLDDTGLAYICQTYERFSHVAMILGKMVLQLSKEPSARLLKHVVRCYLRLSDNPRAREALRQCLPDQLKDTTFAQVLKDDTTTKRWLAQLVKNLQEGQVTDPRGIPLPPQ
binder,measurement,value
"NOT10:NOT11 heterodimer (complex, NOT10, human, […]; NOT11, human, […]; also called NOT10:NOT11 module; source: E. coli BL21(DE3) Star, co-expressed, purified (IMAC, SEC); not shown: MBP, N-terminal, cleaved; His6, C-terminal, cleaved) chain 1: not shown chain 2: not shown",stoichiometry N,1
